Measurements reported in PubChem BioAssay AID504706 (National Center for Advancing Translational Sciences (NCATS), 2011).
In all, about 320,000 compounds went through this assay and about 200 (0.062%) were called active. Inconclusive means that the source gave no clear call. Such entries were picked first, then a sample of the others. The call rests on the fitted dose curve; in most records, active means well fitted activation curve with a large enough effect; inconclusive means small, poorly fitted or top-dose-only effect; inactive means no such curve, though single readings can be large or run the other way. Potencies of inconclusive entries are left out as doubtful fits.

test: qHTS assay for re-activators of p53 using a Luc reporter; conditions: H1299 p53-A138V BP100-luciferase reporter, luminescence, 24 h; series mostly up to 92.2 µM; activity change, positive = activation: at the top concentration; further: nearly all actives have a fitted effect of over 45% in size; on activity change, positive = activation: % of control where 0% means no effect
In short: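 H1299 (p53-null), stable ts p53-A138V + BP100-Luc; 1000 cells/well, Opti-MEM/10% FBS; cpd 4 pt, 1:5; 24 h, 37 deg C, 5% CO2; detection reagent 10 min RT; luminescence.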
Potency means the concentration at half of the fitted maximal effect; tags describe the fitted curve by direction and shape.

| SMILES | Potency | activity change, positive = activation |
| --- | --- | --- |
| Cc1nn(C)cc1CNC(=O)Nc1ccc(Cl)cc1 | inconclusive [activator, full curve] | – |
| Oc1cccc(/C=N/c2c(-c3ccco3)nc3ccccn23)c1 | inconclusive [activator, single point] | – |
| CC(C)(C)c1ccc(S(=O)(=O)Nc2ccc3c(c2)COC3=O)cc1 | inconclusive [activator, partial curve, poor fit] | – |
| CCN(CC)c1ccc(/C=N/NC(=O)c2c(Cl)cnn2C)c(O)c1 | inconclusive [activator, partial curve, poor fit] | – |
| COc1ccc(/C=C2\CCc3ccccc3C2=O)c(OC)c1OC | inconclusive [activator, partial curve, poor fit] | – |
| CC(C)(C)OC(=O)C1=C(CO)CS[C@@H]2[C@H](NC(=O)Cc3ccccc3)C(=O)N12 | – | inactive: 7.32% |
| Cc1ccc(OCc2n[nH]c(=S)n2-c2ccccc2)cc1C | – | inactive: -1.07% |
| CCCCCCN(C(=O)CCl)c1ccccc1 | – | inactive: -12.2% |
| Cc1cc(N2CCN(C)CC2)ccc1NC(=O)c1c2c(nc3ccccc13)CCN(Cc1ccccc1)C2 | – | inactive: 26% |
| CCCCc1nc2cc(C(=O)N(C)C3CCOCC3)ccc2o1 | inconclusive [activator, partial curve, poor fit] | – |
| CC(C)Oc1cccc(C(=O)NC(=S)Nc2cccnc2)c1 | inconclusive [activator, partial curve, poor fit] | – |
| O=C(Nc1nnc(C2CC2)s1)c1ccccn1 | inconclusive [activator, partial curve, poor fit] | – |
| Nc1ccccc1C(=O)N1CCc2ccccc21 | inconclusive [activator, partial curve, poor fit] | – |
| O=C(O)/C=C/C(=O)Nc1ccc(S(=O)(=O)N2CCCC2)cc1 | inconclusive [activator, partial curve, poor fit] | – |
| Cc1c(C(=O)Nc2ccc(F)cc2)oc2ccc(S(=O)(=O)N3CCC4(CC3)OCCO4)cc12 | – | inactive: -6.18% |
| O=C(NC1CCCC1)c1cc(-c2ccccc2)on1 | inconclusive [activator, partial curve, poor fit] | – |
| COc1ccc(C(=O)CNc2cccc(F)c2)cc1 | inconclusive [activator, partial curve, poor fit] | – |
| Cc1cnc(C(=O)OCC(=O)c2c[nH]c3ccccc23)cn1 | – | inactive: 2.01% |
| O=C(OCC(=O)N1CCOCC1)c1ccc(Cl)cc1[N+](=O)[O-] | inconclusive [activator, partial curve, poor fit] | – |
| C/C(=N\NC(=S)Nc1ccccc1C)c1cc2ccccc2o1 | – | inactive: 4.74% |
| CCOC(=O)c1c(NC(=O)c2ccc(S(=O)(=O)N(C)CC3CCCO3)cc2)sc2c1CC(C)(C)NC2(C)C (centres undefined) | inconclusive [activator, full curve] | – |
| Cc1nn(C)c(C)c1S(=O)(=O)Nc1ccc2c(c1)OCO2 | inconclusive [activator, single point] | – |
| CC(C)OC(=O)Nc1ccc2c(c1)N(C(=O)N1CCN(C)CC1)c1ccccc1CC2 | inconclusive [activator, single point] | – |

| SMILES | Potency | activity change, positive = activation |
| --- | --- | --- |
| Cn1c(CCN2CCN(c3ccccn3)CC2)nc2cc(NS(=O)(=O)c3ccccc3)ccc21 | inconclusive [activator, partial curve, poor fit] | – |
| CCN1CCN(CCCOc2ccccc2-c2ccccc2)CC1 | inconclusive [activator, partial curve, poor fit] | – |
| O=C1c2ccccc2NC(c2ccc(-c3ccc(Br)cc3)o2)N1O (centres undefined) | inconclusive [activator, single point] | – |
| CCOc1ccc(-c2nnc(-c3ccco3)o2)cc1OCC | inconclusive [activator, single point] | – |
| COc1ccc(C(=O)Nc2ccc3c(c2)nc(CCNC(C)=O)n3C)cc1 | inconclusive [activator, partial curve, poor fit] | – |
| CCCCNc1c(-c2ccc(SC(C)CC)cc2)nc2ccccn12 (centres undefined) | inconclusive [activator, full curve, poor fit] | – |
| COc1cccc(NC(=O)c2ccc(OC(F)(F)F)cc2)c1 | inconclusive [activator, full curve, poor fit] | – |
| Cc1cc(-c2n[nH]c(=S)o2)c(C)n1-c1ccccc1 | inconclusive [activator, full curve, poor fit] | – |
| O=C(NCCN1CCOCC1)c1cc(Cl)ccc1Cl | inconclusive [activator, single point] | – |
| O=C(O)C1C2C=CC(C2)C1C(=O)NCCc1ccccc1 (centres undefined) | inconclusive [activator, full curve, poor fit] | – |
| Fc1ccc(OCc2nc(-c3cccs3)no2)cc1 | inconclusive [activator, partial curve, poor fit] | – |
| CCOc1ccc2nc(NC(=O)COC)sc2c1 | inconclusive [activator, partial curve, poor fit] | – |
| O=C1/C(=C/c2ccc(O)cc2)CCc2ccc([N+](=O)[O-])cc21 | inconclusive [activator, partial curve, poor fit] | – |
| CCOc1cccc(-c2cc(=O)[nH][nH]2)c1 | – | inactive: 3.45% |
| CC(=O)Nc1ccc(NC(=O)C2C3CCC(C3)C2C(=O)O)cc1 (centres undefined) | – | inactive: -1.22% |
| COC(=O)c1ccccc1S(=O)(=O)N1CCC(C(=O)NCCC2=CCCCC2)CC1 | – | inactive: -0.221% |
| N#CC(C(=O)c1ccco1)c1ccccn1 (centres undefined) | inconclusive [activator, full curve, poor fit] | – |
| O=C(CSc1nnnn1C1CCCCC1)NCc1cccc(C(=O)O)c1 | inconclusive [activator, partial curve, poor fit] | – |
| O=C(NCc1ccc(Cl)cc1)c1cc(-c2cccs2)on1 | inconclusive [activator, single point] | – |
| O=C(Nc1nnc(-c2ccccc2F)s1)C1CCCO1 (centres undefined) | inconclusive [activator, partial curve] | – |
| O=C(NC(=S)NC(CO)Cc1ccccc1)c1ccc(F)cc1 (centres undefined) | – | inactive: 7.17% |
| COc1ccc(-c2nnc(Nc3nc4c(OC)cccc4s3)o2)cc1 | inconclusive [activator, partial curve, poor fit] | – |
| CN1CCN(NC(=O)/C=C/c2cccc(Cl)c2)CC1 | inconclusive [activator, single point] | – |

| SMILES | Potency | activity change, positive = activation |
| --- | --- | --- |
| Cn1cc(C(=O)C(=O)NC2CCCCC2)c2ccccc21 | inconclusive [activator, partial curve, poor fit] | – |
| COC(=O)CSc1nnc(CCc2ccccc2)n1C | inconclusive [activator, single point] | – |
| O=C(NC1=NCCS1)c1ccc(OCC2CCCO2)cc1 (centres undefined) | inconclusive [activator, partial curve, poor fit] | – |
| Cc1ccc(C(=O)NCCC(=O)N2CCCC2)cc1 | inconclusive [activator, partial curve, poor fit] | – |
| COc1cc(NC(=O)C2CC2)c(C(=O)O)cc1OC | – | inactive: 1.82% |
| Cc1cccc(-c2nc(=S)c3c(o2)CCCC3)c1 | inconclusive [activator, partial curve, poor fit] | – |
| O=C1NN(c2cccc(Br)c2)C(=O)/C1=C\c1ccccc1 | – | inactive: 0.69% |
| C/C(CC(=O)NC(C)(C)C)=N\NC(=O)c1ccco1 | inconclusive [activator, partial curve, poor fit] | – |
| CC(C(O)c1ccc(O)cc1)N1CCC(Cc2ccccc2)CC1 (centres undefined) | inactive | – |
| CSc1nc(N)nc(SC2C=CCCC2)c1C#N (centres undefined) | inconclusive [activator, partial curve, poor fit] | – |
| NC(=O)c1sc2nc(-c3ccco3)ccc2c1N | inconclusive [activator, partial curve, poor fit] | – |
| Cc1ccc2[nH]c(=O)c(C(c3nnnn3CC3CCCO3)N3CCOCC3)cc2c1 (centres undefined) | – | inactive: -4.31% |
| CCCc1cc(N2CCOCC2)n2ncc(-c3ccccc3)c2n1 | inconclusive [activator, full curve, poor fit] | – |
| COc1ccc(CC(=O)Nc2nnc(-c3cccc([N+](=O)[O-])c3)s2)cc1 | – | inactive: 8.88% |
| N=c1n(CCO)c2ccccc2n1CCOc1ccc(Cl)cc1Cl | inconclusive [activator, single point] | – |
| CCn1c2ccccc2c2cc(/C=N/NC(=O)c3ccc(O)cc3)ccc21 | – | inactive: -9.35% |
| Cn1c(Sc2ccccc2Cl)c(C=O)c2ccccc21 | – | inactive: -5.74% |
| COCCCNc1nc2c(-c3ccc(C)cc3)nnn2c2ccccc12 | inconclusive [activator, full curve, poor fit] | – |
| CC(C)n1cc(/C=N\NC(=O)c2cc3c(ccc4ccccc43)o2)c2ccccc21 | inconclusive [activator, single point] | – |
| Cc1ccc(N2C(=O)N(CC(=O)Nc3ccc(F)c(F)c3)C(=O)C2C)cc1 (centres undefined) | – | inactive: 14.7% |
| O=C(CN1C(=O)S/C(=C/c2ccc(N3CCOCC3)cc2)C1=O)N1CCOCC1 | inconclusive [activator, partial curve, poor fit] | – |
| COc1ccc(CNC(=O)CN(C(=O)c2csnn2)c2ccc(C(C)=O)cc2)cc1 | – | inactive: 16.2% |
| O=C(CNC(=O)c1ccco1)NCC(=O)OCc1ccccc1Cl | – | inactive: 6.35% |
